A lower IC50 marks a more sensitive line; a fit beyond the top or the lowest dose is shown as a bound at that dose. AUC, from the same fit, is the share of area under the viability curve across the 256-fold dose range; it is 1 without any effect and falls as sensitivity rises. For part of these data: Where the top dose is marked as inferred, it was calculated from the reported fits. For part of these data: Drugs with an entry number were screened twice under separate entries, and the two screens often disagree.
Assays:
Assay in all cases: Viability of human cancer cell lines after 72 h of drug (GDSC screen)
[1] = compound: C/C(O)=C(\C#N)C(=O)Nc1cc(Br)ccc1Br [LFM-A13]; details: top dose 16 µM; top dose inferred
Procedure: (§1)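 Human cancer cell lines in 384-well plates, medium with 10% serum, drug for 72 h over a 256-fold dose range (nine 2-fold or five 4-fold steps up to the top dose). Adherent lines were fixed and stained with the nucleic acid dye Syto60, suspension lines read with resazurin; signal relative to control wells, capped at 0 and 100%. One two-parameter sigmoid per drug and line, fitted in a mixed model over all curves with the slope shared within a line.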

[2] = compound: CC(C)c1ccccc1Cc1cc(C(=O)Nc2ccc(S(=O)(=O)c3ccccc3C(C)(C)C)cc2)c(O)c(O)c1O [TW-37]; details: top dose 5 µM
Procedure: as §1

[3] = compound: CC(O)(CS(=O)(=O)c1ccc(F)cc1)C(=O)Nc1ccc(C#N)c(C(F)(F)F)c1 [Bicalutamide]; details: top dose inferred
Procedure: as §1

[4] = compound: CCNC(=O)c1noc(-c2cc(C(C)C)c(O)cc2O)c1-c1ccc(CN2CCOCC2)cc1 [AUY922]; details: top dose 0.256 µM; top dose inferred
Procedure: as §1

[5] = compound: Cc1ccc(Nc2cc(-c3cccc(N4C(=O)c5ccccc5C4=O)c3)ncn2)cc1NS(C)(=O)=O [KIN001-270]; details: top dose 20 µM; top dose inferred
Procedure: as §1

[6] = compound: Cc1cn(-c2cc(NC(=O)c3ccc(C)c(Nc4nccc(-c5cccnc5)n4)c3)cc(C(F)(F)F)c2)cn1 [Nilotinib]; details: top dose 2 µM
Procedure: as §1

[7] = compound: Nc1ccn([C@@H]2O[C@H](CO)[C@@H](O)C2(F)F)c(=O)n1 [Gemcitabine]; details: top dose 1.024 µM
Procedure: as §1

[8] = compound: O=S(=O)(c1ccccc1)N(CC(F)(F)F)c1ccc(C(O)(C(F)(F)F)C(F)(F)F)cc1 [T0901317]; details: top dose 10.24 µM; top dose inferred
Procedure: as §1

[9] = compound: S=C(NCc1ccc2c(c1)OCO2)N1CCN(c2ncnc3c2oc2ccccc23)CC1 [MP470]; details: top dose 20 µM; top dose inferred
Procedure: as §1

[10] = top dose 1.024 µM, screen: GDSC drug entry 150
[11] = top dose 10 µM, screen: GDSC drug entry 1502

Row | Cell Line | AUC [1] | IC50 [1] [nM] | AUC [2] | IC50 [2] [nM] | AUC [3, 10] | IC50 [3, 10] [nM] | AUC [4] | IC50 [4] [nM] | AUC [5] | IC50 [5] [nM] | AUC [6] | IC50 [6] [nM] | AUC [7] | IC50 [7] [nM] | AUC [8] | IC50 [8] [nM] | AUC [9] | IC50 [9] [nM] | AUC [3, 11] | IC50 [3, 11] [nM]
1 | KU-19-19 (bladder, adherent) | 0.918 | > 16000 | 0.465 | 252 | 0.961 | > 1020 | 0.795 | 119 | 0.987 | > 20000 | 0.987 | > 2000 | 0.962 | > 1020 | 0.964 | > 10200 | 0.937 | > 20000 |  | 
2 | Saos-2 (osteosarcoma, adherent) | 0.929 | > 16000 | 0.563 | 501 | 0.977 | > 1020 | 0.665 | 56.1 | 0.981 | > 20000 | 0.981 | > 2000 | 0.949 | > 1020 | 0.981 | > 10200 | 0.98 | > 20000 | 0.957 | > 10000
3 | RC-K8 (B-cell lymphoma, suspension) | 0.993 | > 16000 | 0.726 | 1240 | 0.993 | > 1020 | 0.891 | 230 | 0.981 | > 20000 | 0.992 | > 2000 | 0.783 | 372 | 0.987 | > 10200 | 0.987 | > 20000 | 0.97 | > 10000
4 | H2595 (mesothelioma, adherent) | 0.943 | > 16000 | 0.414 | 165 | 0.981 | > 1020 | 0.673 | 59.2 | 0.981 | > 20000 | 0.954 | > 2000 | 0.528 | 78.6 | 0.981 | > 10200 | 0.977 | > 20000 | 0.977 | > 10000
5 | HCC1500 (breast, adherent) | 0.986 | > 16000 | 0.876 | > 5000 | 0.987 | > 1020 | 0.865 | 241 | 0.972 | > 20000 | 0.977 | > 2000 | 0.872 | > 1020 | 0.965 | > 10200 | 0.622 | 2740 | 0.978 | > 10000
6 | huH-1 (liver, adherent) | 0.98 | > 16000 | 0.536 | 400 | 0.984 | > 1020 | 0.984 | > 256 | 0.984 | > 20000 | 0.971 | > 2000 | 0.799 | 629 | 0.984 | > 10200 | 0.931 | > 20000 | 0.982 | > 10000
7 | C-33-A (cervix, adherent) | 0.896 | > 16000 | 0.368 | 135 | 0.986 | > 1020 | 0.468 | 13.1 | 0.841 | 14000 | 0.986 | > 2000 | 0.164 | 6.01 | 0.962 | > 10200 | 0.841 | 14000 | 0.939 | > 10000
8 | KYSE-520 (oesophagus, adherent) | 0.957 | > 16000 | 0.796 | 3320 | 0.981 | > 1020 | 0.6 | 33 | 0.981 | > 20000 | 0.894 | > 2000 | 0.52 | 73.8 | 0.976 | > 10200 | 0.972 | > 20000 | 0.979 | > 10000
9 | T84 (large intestine, adherent) | 0.967 | > 16000 | 0.9 | > 5000 | 0.98 | > 1020 | 0.517 | 17.8 | 0.984 | > 20000 | 0.989 | > 2000 | 0.308 | 18.3 | 0.984 | > 10200 | 0.896 | > 20000 | 0.964 | > 10000
10 | U251 (glioma, adherent) | 0.972 | > 16000 | 0.463 | 249 | 0.985 | > 1020 | 0.678 | 49 | 0.936 | > 20000 | 0.988 | > 2000 | 0.346 | 24.5 | 0.965 | > 10200 | 0.807 | 9660 | 0.975 | > 10000
11 | CaR-1 (large intestine, adherent) | 0.947 | > 16000 | 0.843 | > 5000 | 0.978 | > 1020 | 0.812 | 236 | 0.966 | > 20000 | 0.969 | > 2000 | 0.786 | 707 | 0.967 | > 10200 | 0.926 | > 20000 | 0.711 | 3390
12 | TT2609-C02 (thyroid, adherent) | 0.953 | > 16000 | 0.496 | 304 | 0.968 | > 1020 | 0.455 | 12 | 0.977 | > 20000 | 0.971 | > 2000 | 0.103 | < 4 | 0.983 | > 10200 | 0.959 | > 20000 | 0.985 | > 10000
13 | BFTC-905 (bladder, adherent) | 0.978 | > 16000 | 0.595 | 547 | 0.975 | > 1020 | 0.479 | 14.1 | 0.979 | > 20000 | 0.986 | > 2000 | 0.033 | < 4 | 0.965 | > 10200 | 0.951 | > 20000 | 0.981 | > 10000
14 | NCI-H1437 (lung adenocarcinoma, adherent) | 0.968 | > 16000 | 0.545 | 417 | 0.986 | > 1020 | 0.583 | 27.3 | 0.986 | > 20000 | 0.983 | > 2000 | 0.281 | 14.9 | 0.944 | > 10200 | 0.898 | > 20000 |  | 
